Source: a protein production outcome set (Wang et al. 2014)

Test: label from the status in PepcDB records

Sequence	protein production
ASCDSFNEDLPECRLSVKFKYDYNMEFADAFHAQVDKVELYVFDKNGKYLFKQAEEGSALSTGNYLMEVELPVGQYQFMAWAGARDSYDITSLTPGVSTLTDLKLKLKREASLIINKRMETLWYGEVINVNFDGTVHQTETINLIRDTKIVRFGFQSYTGSWTLDMNDYDYEIIESNGHLGHDNSLLDDDVLSFRPYYMEQKDPATAYVDMNTMRLMEDRKTRLVLTEKASGKRVFDINLIDYLAMTNAEGKNLSTQEYLDRQSNYHIIFFLSESWLAVQIVVNGWVHRIQEENQ	not failed
MALSYRVSELQSTIPEHILQSTFVHVISSNWSGLQTESIPEEMKQIVEEQGNKLHWAALLILMVIIPTIGGNTLVILAVSLEKKLQYATNYFLMSLAVADLLVGLFVMPIALLTIMFEAMWPLPLVLCPAWLFLDVLFSTASIMHLCAISVDRYIAIKKPIQANQYNSRATAFIKITVVWLISIGIAIPVPIKGIETDVDNPNNITCVLTKERFGDFMLFGSLAAFFTPLAIMIVTYFLTIHALQKKAYLVKNKPPQRLTWLTVSTVFQRDETPCSSPEKVAMLDGSRKDKALPNSGDETLMRRTSTIGKKSVQTISNEQRASKVLGIVFFLFLLMWCPFFITNITLVLCDSCNQTTLQMLLEIFVWIGYVSSGVNPLVYTLFNKTFRDAFGRYITCNYRATKSVKTLRKRSSKIYFRNPMAENSKFFKKHGIRNGINPAMYQSPMRLRSSTIQSSSIILLDTLLLTENEGDKTEERVSYV	failed
MANASEPGGSGGGEAAALGLKLATLSLLLCVSLAGNVLFALLIVRERSLHRAPYYLLLDLCLADGLRALACLPAVMLAARRAAAAAGAPPGALGCKLLAFLAALFCFHAAFLLLGVGVTRYLAIAHHRFYAERLAGWPCAAMLVCAAWALALAAAFPPVLDGGGDDEDAPCALEQRPDGAPGALGFLLLLAVVVGATHLVYLRLLFFIHDRRKMRPARLVPAVSHDWTFHGPGATGQAAANWTAGFGRGPTPPALVGIRPAGPGRGARRLLVLEEFKTEKRLCKMFYAVTLLFLLLWGPYVVASYLRVLVRPGAVPQAYLTASVWLTFAQAGINPVVCFLFNRELRDCFRAQFPCCQSPRTTQATHPCDLKGIGL	failed
MGNASNDSQSEDCETRQWLPPGESPAISSVMFSAGVLGNLIALALLARRWRGDVGCSAGRRSSLSLFHVLVTELVFTDLLGTCLISPVVLASYARNQTLVALAPESRACTYFAFAMTFFSLATMLMLFAMALERYLSIGHPYFYQRRVSRSGGLAVLPVIYAVSLLFCSLPLLDYGQYVQYCPGTWCFIRHGRTAYLQLYATLLLLLIVSVLACNFSVILNLIRMHRRSRRSRCGPSLGSGRGGPGARRRGERVSMAEETDHLILLAIMTITFAVCSLPFTIFAYMNETSSRKEKWDLQALRFLSINSIIDPWVFAILRPPVLRLMRSVLCCRISLRTQDATQTSCSTQSDASKQADL	not failed
MTEVLWPAVPNGTDAAFLAGPGSSWGNSTVASTAAVSSSFKCALTKTGFQFYYLPAVYILVFIIGFLGNSVAIWMFVFHMKPWSGISVYMFNLALADFLYVLTLPALIFYYFNKTDWIFGDAMCKLQRFIFHVNLYGSILFLTCISAHRYSGVVYPLKSLGRLKKKNAICISVLVWLIVVVAISPILFYSGTGVRKNKTITCYDTTSDEYLRSYFIYSMCTTVAMFCVPLVLILGCYGLIVRALIYKDLDNSPLRRKSIYLVIIVLTVFAVSYIPFHVMKTMNLRARLDFQTPAMCAFNDRVYATYQVTRGLASLNSCVDPILYFLAGDTFRRRLSRATRKASRRSEANLQSKSEDMTLNILPEFKQNGDTSL	failed
